“And” between values parts separate entries of the source, which are not always exact repeats. Equal entries are not always repeated. The campaign covered roughly 48,000 compounds. About 450 (0.94%) were called active. The shares of active, inactive and inconclusive entries below differ from those in the screen. The call rests on the fitted dose curve; in most records, active means well fitted inhibition curve with a large enough effect; inconclusive means small, poorly fitted or top-dose-only effect; inactive means no such curve, though single readings can be large or run the other way. Potencies beside an inconclusive call are fits to weak or partial responses and may not hold up.
experiment: Primary qHTS for Identification of Small Molecule Inhibitors of Huntingtin Promoter Activity; conditions: HEK293 HTT promoter firefly luciferase reporter (activity 0% = vehicle and -100% = no light), 24 h; series mostly up to 57.5 µM; further: nearly all actives have a fitted effect of over 50% in size
Outline: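 Quantitative HTS used concentration series of up to 57.5 uM final on HEK293 luciferase reporter cells, 24 h at 37 degrees C. Readout was Dual-Glo firefly luminescence.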
Potency means the concentration at half of the fitted maximal effect; tags describe the fitted curve by direction and shape.

SMILES | Potency
Cc1ccc(S(=O)(=O)N2CCC(C(=O)Nc3ccc(C)c(Cl)c3)CC2)cc1 | inconclusive: 17.8 µM [inhibitor, partial curve, poor fit]
COc1ccc(CCNC(=O)C(=O)NCC(c2cccs2)S(=O)(=O)c2ccc(C)cc2)cc1 (configuration not stated) | inconclusive: 11.2 µM [inhibitor, partial curve, poor fit]
CCOC(=O)c1c(C)[nH]c(C)c1S(=O)(=O)N1CCN(c2cccc(C(F)(F)F)c2)CC1 | inconclusive: 17.8 µM [inhibitor, single point]
Clc1ccc(C(c2ccccc2)c2c[nH]c3ccccc23)s1 (configuration not stated) | inactive
Cc1ccc(C)n1-c1nnc(N2CCCC(C(=O)NCc3cccc(F)c3)C2)s1 (configuration not stated) | inactive
CCc1ccccc1Nc1nc2ccccc2c2nncn12 | inactive
CCCCc1c(C)nc2c(-c3ccc(OC)cc3)c(C)[nH]n2c1=O | inconclusive: 25.1 µM [inhibitor, single point]
Cn1c(CN2CCCCC2)nc2cc(NC(=O)c3ccccc3Cl)ccc21 | inconclusive: 39.8 µM [inhibitor, single point]
COc1ccc2nc(NC(=O)c3nc(SC(C)C)ncc3Cl)sc2c1 | inactive
CCOC(=O)c1cccc(NS(=O)(=O)c2ccc(-c3cnc(C4CC4)o3)cc2)c1 | inconclusive: 15.8 µM [inhibitor, partial curve]
O=C1Nc2ccc(Cl)cc2C(C#CC2CC2)(C(F)(F)F)O1 (configuration not stated) | inconclusive: 43.2 µM [inhibitor, partial curve, poor fit]
COc1ccc(NCc2cc3cc4c(cc3n(CC(=O)Nc3cc(C)cc(C)c3)c2=O)OCO4)cc1 | inconclusive: 14.1 µM [inhibitor, partial curve]
CCC(C)n1ncn(-c2ccc(N3CCN(c4ccc(OC[C@H]5CO[C@](Cn6cncn6)(c6ccc(Cl)cc6Cl)O5)cc4)CC3)cc2)c1=O (some centres not stated) | inactive and inconclusive: 17.2 µM [inhibitor, partial curve, poor fit]
CC1=C(C(=O)OCC2CCCCC2)C(c2ccccc2F)CC(=O)N1 (configuration not stated) | inconclusive: 39.8 µM [inhibitor, single point]
Cc1ccc(C(C)C)c(OCC(=O)N2CCC(c3nc4ccccc4o3)CC2)c1 | inconclusive: 22.4 µM [inhibitor, single point]
Cc1nn2c(=O)cc(COC(=O)c3cccc(NC(=O)c4cccs4)c3)nc2s1 | inconclusive: 39.8 µM [inhibitor, single point]
Cc1ccc(CNS(=O)(=O)c2ccc3c(c2)CCN3S(C)(=O)=O)cc1 | inactive
COc1ccc(N(CC(=O)N2CCN(c3cccc(C)c3C)CC2)S(=O)(=O)c2c(C)noc2C)cc1 | inconclusive: 28.2 µM [inhibitor, single point]
Cc1nn2c(=O)cc(COC(=O)c3ccc(NC(=O)C4CCCCC4)cc3)nc2s1 | inconclusive: 7.94 µM [inhibitor, partial curve, poor fit]

SMILES | Potency
COc1cc(NC(=O)Cn2nc(C(F)(F)F)c3c2CCCC3)c(OC)cc1Cl | inconclusive: 22.4 µM [inhibitor, partial curve, poor fit]
CCOc1ccc(CNC(=O)c2ccc(-c3nc(CS(=O)(=O)c4ccccc4)c(C)o3)cc2)cc1 | inconclusive: 17.8 µM [inhibitor, partial curve, poor fit]
Cc1ccc(-c2c(C(=O)Nc3ccc(F)c(F)c3)oc(=O)c3ccccc23)cc1 | inconclusive: 35.5 µM [inhibitor, partial curve, poor fit]
CN(C)c1ccc(CNC(=O)c2cc3cc(S(=O)(=O)N4CCCCC4)ccc3n2C)cc1 | inconclusive: 28.2 µM [inhibitor, single point]
O=C(Nc1c(Cl)cncc1Cl)c1ccc(OC(F)F)c(OCC2CC2)c1 | inactive
Cc1cccc(N2CCN(C(=O)CSCc3ccc(F)cc3)CC2)c1C | inconclusive: 31.6 µM [inhibitor, partial curve, poor fit]
O=C(NCc1ccccc1)c1ccc(NC(=O)c2nsc3ccccc23)cc1 | inconclusive: 39.8 µM [inhibitor, single point]
CC(=O)N1CCCc2cc(S(=O)(=O)N3CCC(C(=O)NCc4ccc(N(C)C)cc4)CC3)ccc21 | inconclusive: 25.1 µM [inhibitor, single point]
CCOc1cccc(CC(=O)Nc2ccc3nc(N4CCCCC4)cc(C)c3c2)c1OCC | inconclusive: 35.5 µM [inhibitor, single point]
CCCS(=O)(=O)Nc1ccc(F)c(C(=O)c2c[nH]c3ncc(-c4ccc(Cl)cc4)cc23)c1F | inconclusive: 21.7 µM [inhibitor, single point]
Cc1ccc(N2C(=O)CCSC23C(=O)N(Cc2ccccc2)c2ccccc23)cc1F (configuration not stated) | inconclusive: 0.447 µM [inhibitor, single point]
O=C(NCc1ccccc1)c1nn(-c2ccccc2)nc1CO | inconclusive: 39.8 µM [inhibitor, single point]
COc1ccccc1NC(=O)CN1CCCN(S(=O)(=O)c2ccc(Br)cc2)CC1 | inconclusive: 31.6 µM [inhibitor, single point]
COc1ccc(/C=C(\C#N)c2nc(-c3cc4c(ccc5ccccc54)oc3=O)cs2)cc1O | inactive
CC1=C(C(=O)OCc2ccccc2)C(c2cccc(Cl)c2Cl)CC(=O)N1 (configuration not stated) | inconclusive: 31.6 µM [inhibitor, partial curve, poor fit]
CCN1C(=O)c2ccccc2S(=O)c2ccc(C(=O)N3CCN(c4cccc(C)c4)C(C)C3)cc21 (configuration not stated) | inconclusive: 35.5 µM [inhibitor, partial curve, poor fit]
COc1ccc(NC(=O)CN2CCCN(Cc3ccc(Cl)cc3)S2(=O)=O)cc1Cl | inconclusive: 39.8 µM [inhibitor, single point]
CCOC(=O)c1cnc2ccccc2c1NCCc1ccc(OC)c(OC)c1 | inconclusive: 39.8 µM [inhibitor, partial curve, poor fit]
